According to paper PMC4336329 (PLoS ONE, 2015):
Out of some 310,000 compounds screened, about 2,200 (0.71%) showed an effect of 50% or more. The effect is printed as a negative number. The list shows a part of the results.

target: human ether-à-go-go-related gene (hERG) potassium channel (human, UniProt Q12809); assay: primary screen, population patch clamp on CHO cells stably expressing hERG
Sequence (Q12809 whole entry, looked up): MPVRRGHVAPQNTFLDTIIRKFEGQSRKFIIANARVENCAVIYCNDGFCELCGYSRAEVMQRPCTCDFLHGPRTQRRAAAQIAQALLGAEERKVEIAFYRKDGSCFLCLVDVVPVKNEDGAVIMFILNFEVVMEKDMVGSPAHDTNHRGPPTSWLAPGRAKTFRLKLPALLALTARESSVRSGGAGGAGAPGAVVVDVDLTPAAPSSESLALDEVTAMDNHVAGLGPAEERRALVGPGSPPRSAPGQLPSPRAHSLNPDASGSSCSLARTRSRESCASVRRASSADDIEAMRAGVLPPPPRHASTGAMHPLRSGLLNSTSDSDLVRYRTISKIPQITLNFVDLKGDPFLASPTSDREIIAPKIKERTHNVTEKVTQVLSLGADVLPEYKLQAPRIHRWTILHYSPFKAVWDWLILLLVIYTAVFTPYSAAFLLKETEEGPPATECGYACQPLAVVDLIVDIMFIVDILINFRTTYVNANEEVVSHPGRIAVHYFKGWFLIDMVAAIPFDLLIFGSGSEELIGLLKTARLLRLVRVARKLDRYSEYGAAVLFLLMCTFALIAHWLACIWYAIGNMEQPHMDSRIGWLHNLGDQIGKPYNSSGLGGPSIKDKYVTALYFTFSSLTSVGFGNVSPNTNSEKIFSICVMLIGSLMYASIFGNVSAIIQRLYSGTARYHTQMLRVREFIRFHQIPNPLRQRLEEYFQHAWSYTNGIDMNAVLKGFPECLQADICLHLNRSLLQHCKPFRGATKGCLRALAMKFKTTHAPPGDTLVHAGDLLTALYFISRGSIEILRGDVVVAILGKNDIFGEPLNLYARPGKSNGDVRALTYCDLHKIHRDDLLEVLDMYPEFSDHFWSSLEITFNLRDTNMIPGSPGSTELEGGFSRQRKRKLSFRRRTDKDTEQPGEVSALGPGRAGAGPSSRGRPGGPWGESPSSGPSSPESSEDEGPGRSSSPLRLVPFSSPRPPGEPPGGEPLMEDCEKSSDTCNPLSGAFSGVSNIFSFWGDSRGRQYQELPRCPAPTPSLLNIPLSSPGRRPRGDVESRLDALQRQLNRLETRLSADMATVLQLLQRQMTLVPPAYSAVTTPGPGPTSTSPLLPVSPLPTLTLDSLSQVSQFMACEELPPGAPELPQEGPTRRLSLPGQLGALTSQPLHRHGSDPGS

SMILES | hERG current change (%, negative = inhibition) at 1uM
Cc1ccc(S(=O)(=O)N2CCN(C(=O)CCC(=O)NCCc3ccc(F)cc3)CC2)cc1 | -1.58%
NNC(=S)Nc1cccc(-c2n[nH]c(=S)o2)c1 | 6.93%
O=[N+]([O-])c1cc([N+](=O)[O-])c(Oc2cccc(Cl)c2Cl)cc1NN1CCCCC1 | 5.15%
CN(/N=C/c1cc([N+](=O)[O-])ccc1O)c1ccccc1 | 9.83%
COc1ccc(-n2c(-c3ccco3)n[nH]c2=S)cc1 | 11.5%
Cc1ccc(OCc2nnc(SCC(=O)CC(=O)Nc3ccccc3)o2)cc1 | 11%
COCCCNC(=O)c1cc2cc3cc(OC)ccc3nc2o1 | -8.97%
CCS(=O)(=O)n1nc(-c2ccccc2)cc1N | 13.8%
CC1(C)CC(=O)c2cnc(NC3CC3)nc2C1 | 9.57%
CCOc1ccc(NS(=O)(=O)c2ccc(Cl)c(C(=O)N(C)Cc3cccnc3)c2)cc1 | 4.62%
CCN(c1ccc2c(c1)OCO2)S(=O)(=O)c1cc(Br)cc2c1N(C(C)=O)CC2 | 2.27%
CCNC(=O)n1nccc1C(C)Oc1cccc(C(F)(F)F)c1 (centres unmarked) | -6.21%
CC(N=C1NS(=O)(=O)c2ccccc21)C(=O)NCCCc1ccccc1 (centres unmarked) | 13%
Cc1nc(NC(=O)c2ccncc2)sc1C(=O)N(C)C | 12.3%
COc1cc(C(NC=O)C(=O)Nc2c(C)cccc2C)ccc1O (centres unmarked) | 5.3%
CC(=O)N1CCc2cc(S(=O)(=O)NCCC(=O)Nc3cccc(C)c3)ccc21 | 8.66%
NS(=O)(=O)c1cccc(NC(=O)COC(=O)C2CCN(S(=O)(=O)c3cccs3)CC2)c1 | 9.68%
O=C(O)Cc1csc(NC(=O)CSc2cccc(C(=O)O)n2)n1 | 10.5%
C/C(=N\NC(=O)c1ccccc1)c1ccccc1Br | 17.9%
COC(=O)c1cccc(NC(=O)Cc2coc3cc(OC)ccc23)c1 | 7.58%
CC(C)CC(=O)NS(=O)(=O)c1ccc(NC(=O)c2ccco2)cc1 | 17.5%
NS(=O)(=O)c1cccc2c1c([N+](=O)[O-])cc1nc([O-])c([O-])nc12.[Na+] | 20.2%
CCCOc1ncnc2c1[nH]c1ccc(C)cc12 | 9.2%

SMILES | hERG current change (%, negative = inhibition) at 1uM
O=C1/C(=C\c2ccco2)SC(=S)N1C1CCS(=O)(=O)C1 (centres unmarked) | 9.18%
O=C(c1ccccc1)N1C(=O)C(c2ccccc2)Oc2ccccc21 (centres unmarked) | 9.38%
CC1=C(C(=O)OCc2ccc3c(c2)OCO3)C(c2cccc([N+](=O)[O-])c2)NC(=O)N1 (centres unmarked) | 1.04%
O=C(Nc1cccnc1Cl)c1ccc(Cl)c([N+](=O)[O-])c1 | 7.11%
COc1ccccc1NC(=O)c1ccc(NC(=O)C2COc3ccccc3O2)cc1 (centres unmarked) | 13.5%
O=c1[nH]c(NCCO)nc2c1C1(CCCCC1)Cc1ccccc1-2 | 4.65%
O=C(CCCc1ccccc1)Nc1ccnn1C1CCN(Cc2ccc(Cl)cc2)CC1 | -13.2%
CC1=CN2C(=N)/C(=C/c3ccc(Sc4ccc(Cl)cc4)o3)C(=O)N=C2S1 | 7.59%
CC(=O)Nc1ccc(S(=O)(=O)Oc2cccc(/C=N/N=C3/NC(=O)C(CC(=O)O)S3)c2)cc1 (centres unmarked) | 15.8%
CC1C=CCC2C(=O)N(c3ccccc3OC(=O)c3cccs3)C(=O)C12 (centres unmarked) | 9.04%
CCC(C)N(C(=O)CSc1ccc(NC(C)=O)cc1)C1CCS(=O)(=O)C1 (centres unmarked) | 22.2%
Cc1nc2ccccc2c(=O)n1/N=C/c1cc(Br)ccc1O | 19.1%
Nc1nc(CSc2nc3ccccc3s2)nc(N2CCOCC2)n1 | 10.9%
Cc1ccc(/C(N)=N/OC(=O)COc2ccc(Cl)c(C)c2)cc1 | 11.9%
CC(C)N(CCn1c(SCC(=O)Nc2cccnc2Cl)nc2ccccc2c1=O)C(C)C | -23.7%
Cc1ccc(N2CC(C(=O)N3CCCc4ccccc43)CC2=O)cc1 (centres unmarked) | -7.4%
COc1cc(C(N)=O)cc(Br)c1OCc1ccccc1 | 14.6%
Cc1nc2ccccc2c(=O)n1/N=C/c1ccccc1F | 1.71%
c1ccc(Cc2cc(-c3ccccc3)on2)cc1 | 10.7%
CC1Cc2ccccc2N1S(=O)(=O)c1cccc(C(=O)OCC(=O)NC2CCS(=O)(=O)C2)c1 (centres unmarked) | 4.84%
O=C(Cn1cnc([N+](=O)[O-])n1)N/N=C/c1ccccc1O | 11.1%
O=C(C1CCCCN1S(=O)(=O)c1ccccc1[N+](=O)[O-])N1CCCCC1 (centres unmarked) | 13.6%
CCc1cccc(C)c1NC(=O)CCNC(=O)c1cccc(C)c1 | 14.8%

SMILES | hERG current change (%, negative = inhibition) at 1uM
Cc1nn(C)cc1/C=N/NC(=O)C1(O)c2ccccc2-c2ccccc21 | 9.4%
CN1CCN(C2CC(=O)N(c3ccc4c(c3)OCCO4)C2=O)CC1.Cl (centres unmarked) | 14.9%
N#Cc1cccc(NC(=O)CCNC(=O)c2ccccc2Cl)c1 | 10.5%
CCCCCCCCCCNC(=O)C(=O)Nc1ccccn1 | 10.3%
COc1ccc(N2CC(O)=C(c3nc(-c4ccc(Br)cc4)cs3)C2=N)cc1 | 18.6%
COc1ccc(C(=O)N2C(=O)c3ccc(N)cc3C2=O)cc1 | 10.2%
c1ccc2c(c1)CC1(CCCC1)n1nnnc1-2 | -12.6%
CCOc1ccc(C2CC(=O)NC3=C2C(=O)CCC3)cc1Cl (centres unmarked) | 9.92%
CCC1(CC)C(=O)NC(=O)NC1=NCCc1c[nH]c2ccccc12 | 21.2%
Cc1ccccc1Nc1c(-c2ccncc2)nc2ccc(Cl)cn12 | 6.85%
O=C(NCCc1nc2ccccc2[nH]1)/C(=C/c1ccc2c(c1)OCO2)NC(=O)c1ccccc1Cl | -49.9%
COc1ccc(C(C[N+](=O)[O-])c2c(C)cc3ccccn23)c(OC)c1 (centres unmarked) | 17%
COc1ccc([C@@H]2Sc3ccccc3NC(=O)[C@@H]2O)cc1 | 7.02%
Cc1cc(C(=O)COC(=O)C2CC2)c(C)n1-c1ccc(F)cc1 | 4.45%
CC(NC(=O)C1CC1)C(c1cccs1)N1CCOCC1 (centres unmarked) | 8.13%
Cc1ccc(C)c2c1[nH]c1ccc([N+](=O)[O-])cc12 | 13%
O=C(O)CCC(=O)OC1CC2CCC1C2 (centres unmarked) | 2.35%
CC1CCCN(CCOCCSc2ccccc2)C1.O=C(O)C(=O)O (centres unmarked) | -1.26%
CCn1nc(C(=O)OCC(=O)N(CCC#N)c2ccccc2)c2ccccc2c1=O | 0.704%
CCCCOc1cccc(C(=O)Nc2ccc(NC(=O)c3cccs3)cc2)c1 | 15.7%
CC(=O)NCCc1nc2cc(NC(=O)COc3ccc(C)cc3)ccc2n1C | 14.9%
O=C(O)CCC(NC(=S)Nc1ccccc1)C(=O)O (centres unmarked) | 8.14%
Cc1ccc(C(=O)O/N=C(\N)Cc2cccs2)cc1[N+](=O)[O-] | 3.66%

SMILES | hERG current change (%, negative = inhibition) at 1uM
CCCCn1c(O)c(C=NCCCN(CC)CC)c(=O)[nH]c1=O | 3.77%
COc1ccc(NC(=O)C=C(C)C)cc1Cl | 12.1%
N#CC1=C(SCC(=O)NC23CC4CC(CC(C4)C2)C3)NC(=O)C(C#N)C12CCCCC2 (centres unmarked) | 6.03%
CC(=O)c1cccc(NC(=O)N2CCCC2C(=O)NCCC(C)C)c1 (centres unmarked) | 11.7%
Cc1ccc([N+](=O)[O-])cc1S(=O)(=O)Nc1ccc(O)c(Sc2ncn[nH]2)c1 | 14.7%
Cc1cc(C)cc(NS(=O)(=O)c2ccc3c(c2)c(=O)n(C)c(=O)n3C)c1 | 1.74%
Cc1ccc(C(=O)Nc2c3c(nn2-c2ccccc2)CS(=O)(=O)C3)cc1C | 0.317%
c1csc(-c2nc3nc4ccccc4nc3n2Cc2ccc3c(c2)OCO3)c1 | 11.9%
Cc1cc(C=C2C(=O)NC(=O)NC2=O)c(C)n1-c1ccc2c(c1)OCO2 | 13.5%
CCC(C)Sc1nc2c(c(=O)[nH]c(=O)n2C)n1CC(O)COc1cccc2ccccc12 (centres unmarked) | 7.44%
O=C(Cc1ccc([N+](=O)[O-])cc1)NCC1CCCO1 (centres unmarked) | 9.72%
O=C(NCc1ccccc1Br)c1ccncc1 | 13.6%
O=C(Nc1nc(-c2cc(F)ccc2F)cs1)C1=COCCO1 | 2.56%
Cl.O=C(CCN1CCOCC1)NC12CC3CC(CC(C3)C1)C2 | 10.9%
COc1cccc(NC(=O)CN(C)C(=O)c2ccc3c(c2)S(=O)(=O)N=C2CCCCCN23)c1 | 14.2%
CCOC(=O)C1C(=O)C(C(=O)OCC)C(c2cccnc2)NC1c1cccnc1 (centres unmarked) | 0.543%
COc1ccc(NC(=O)/C(C#N)=C\c2ccc(OCc3ccc(C(=O)O)cc3)c(OC)c2)cc1 | -12.9%
COCc1nnc(NC(=O)CC(C)C)s1 | 7.31%
CCc1nnc(NS(=O)(=O)c2ccc(NC(=S)NC(=O)/C=C/c3ccc(OC)cc3)cc2)s1 | 12.9%
CS(=O)(=O)N1CCCC(C(=O)NCCCN2CCC(Cc3ccccc3)CC2)C1 (centres unmarked) | 2.99%
